Consider four substances from paper PMC2496901.

Chains of the proteins cited; added tags and fusions are not shown. Lines headed by an entry give the natural chain unless they say otherwise; changes in a name come on top. A line that says so, or that is headed by a name, gives the form on record, which may keep a tag or linker.
UniProt O00629: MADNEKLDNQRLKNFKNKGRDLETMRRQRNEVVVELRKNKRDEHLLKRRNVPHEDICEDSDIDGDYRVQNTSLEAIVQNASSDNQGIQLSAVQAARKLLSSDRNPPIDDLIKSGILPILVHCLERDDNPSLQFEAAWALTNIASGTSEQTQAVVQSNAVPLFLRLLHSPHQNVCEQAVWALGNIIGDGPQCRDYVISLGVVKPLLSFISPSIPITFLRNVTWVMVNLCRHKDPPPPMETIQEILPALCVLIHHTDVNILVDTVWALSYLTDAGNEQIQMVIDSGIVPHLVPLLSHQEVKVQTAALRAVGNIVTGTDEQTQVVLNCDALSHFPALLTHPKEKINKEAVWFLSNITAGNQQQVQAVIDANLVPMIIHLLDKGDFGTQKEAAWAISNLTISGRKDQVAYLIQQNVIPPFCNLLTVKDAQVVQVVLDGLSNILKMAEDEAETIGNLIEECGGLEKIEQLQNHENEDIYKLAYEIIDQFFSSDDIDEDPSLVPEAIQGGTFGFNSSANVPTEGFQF
UniProt P52294: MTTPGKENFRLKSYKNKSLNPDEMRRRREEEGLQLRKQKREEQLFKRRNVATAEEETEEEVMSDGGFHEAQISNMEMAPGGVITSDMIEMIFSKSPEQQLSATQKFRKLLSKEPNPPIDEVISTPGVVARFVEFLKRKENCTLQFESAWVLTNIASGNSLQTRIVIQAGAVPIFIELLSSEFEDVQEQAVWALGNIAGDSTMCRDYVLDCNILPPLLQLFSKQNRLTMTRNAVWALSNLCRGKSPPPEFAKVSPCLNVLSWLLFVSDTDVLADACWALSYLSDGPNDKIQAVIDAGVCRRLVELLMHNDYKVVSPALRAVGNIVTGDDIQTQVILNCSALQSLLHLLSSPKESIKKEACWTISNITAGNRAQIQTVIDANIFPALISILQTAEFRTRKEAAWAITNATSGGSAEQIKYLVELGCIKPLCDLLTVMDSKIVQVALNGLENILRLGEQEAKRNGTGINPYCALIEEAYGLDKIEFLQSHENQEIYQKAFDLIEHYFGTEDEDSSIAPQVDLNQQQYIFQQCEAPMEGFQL
UniProt O88554: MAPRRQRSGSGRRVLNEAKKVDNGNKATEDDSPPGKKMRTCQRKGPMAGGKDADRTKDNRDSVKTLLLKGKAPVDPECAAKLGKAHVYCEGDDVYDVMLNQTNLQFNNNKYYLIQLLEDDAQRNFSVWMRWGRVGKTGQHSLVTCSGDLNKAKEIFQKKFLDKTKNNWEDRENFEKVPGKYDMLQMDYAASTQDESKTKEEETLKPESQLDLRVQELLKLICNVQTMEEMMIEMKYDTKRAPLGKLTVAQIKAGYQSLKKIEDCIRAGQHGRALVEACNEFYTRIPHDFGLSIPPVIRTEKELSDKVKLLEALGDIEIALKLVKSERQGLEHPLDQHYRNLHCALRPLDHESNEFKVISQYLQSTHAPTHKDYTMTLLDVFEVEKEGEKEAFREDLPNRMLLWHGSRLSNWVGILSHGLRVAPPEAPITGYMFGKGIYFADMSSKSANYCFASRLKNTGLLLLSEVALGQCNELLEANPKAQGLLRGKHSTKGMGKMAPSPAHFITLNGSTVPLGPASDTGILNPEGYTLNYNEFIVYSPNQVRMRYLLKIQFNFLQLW
HA-tagged PARP-2 K36/37R (O88554, form named): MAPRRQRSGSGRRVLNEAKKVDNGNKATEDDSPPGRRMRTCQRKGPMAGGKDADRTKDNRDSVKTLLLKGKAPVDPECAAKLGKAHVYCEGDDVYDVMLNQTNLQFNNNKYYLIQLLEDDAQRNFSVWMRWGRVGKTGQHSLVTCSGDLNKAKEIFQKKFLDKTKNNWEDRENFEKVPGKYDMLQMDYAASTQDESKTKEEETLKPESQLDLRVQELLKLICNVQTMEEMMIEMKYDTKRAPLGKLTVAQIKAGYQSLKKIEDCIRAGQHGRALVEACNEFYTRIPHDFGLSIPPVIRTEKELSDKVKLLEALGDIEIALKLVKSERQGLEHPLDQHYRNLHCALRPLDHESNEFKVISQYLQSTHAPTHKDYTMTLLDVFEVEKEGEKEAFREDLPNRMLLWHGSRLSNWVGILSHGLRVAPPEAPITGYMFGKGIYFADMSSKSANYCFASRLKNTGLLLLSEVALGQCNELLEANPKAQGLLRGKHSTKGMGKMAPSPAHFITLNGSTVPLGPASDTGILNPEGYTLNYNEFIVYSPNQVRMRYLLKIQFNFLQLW

No constants are given. Whether binding was seen depends on the method and setting. In cells and extracts the contact can be indirect. Some binding calls cover weakened binding; strength is not graded here.

Targets include GST-importin α3 (human) (UniProt O00629); GST-importin α7 (human) (UniProt O60684); GST-importin α5 (human) (UniProt P52294).
Test in all cases: pull-down; purified GST-importin bound to Glutathione Sepharose 4B, incubated with whole cell extracts of HEK293T cells expressing HA-PARP-2; 50 mM Tris pH 8.0, 150 mM NaCl, 0.5% NP-40, 0.5 mM DTT; western blot with anti-HA; only the target purified
(A western blot detects proteins with antibodies after separation by electrophoresis.)

On to “HA-tagged PARP-2 K36/37R (from UniProt O88554 1-559)”, for which the binding result in the test with GST-importin α3 (human) was “no binding”.

In the case of “HA-tagged PARP-2 K36R (from UniProt O88554 1-559)”, in the test with GST-importin α3 (human), the binding result is on record as “no binding”.

Take “HA-tagged PARP-2 K37R (from UniProt O88554 1-559)”: the binding result with GST-importin α3 (human) is “binds”.

Take “HA-tagged wild type PARP-2 (from UniProt O88554 1-559)”: the binding entry is listed as “binds” with GST-importin α3 (human), “no binding” in the test with GST-importin α7 (human) and “binds weakly” with GST-importin α5 (human).
